In PubChem BioAssay AID1745853 (National Center for Advancing Translational Sciences (NCATS), 2022):
The list shows a part of the results. Further columns of the screen follow, without active or inactive calls.

How the values were obtained:
Test in all cases: Primary Screen for Target Class Profiling of Small Molecule Inhibitors of Methyltransferases
[1] = target: Glycine N-methyltransferase (Homo sapiens) (UniProt Q14749); details: purified enzyme, MTase-Glo SAH luminescence; measured here: GNMT inhibition; at 40 µM; stronger effect = lower value
Summary of the method: (§1)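 Each enzyme was assayed with SAM and its substrate. SAH formation detected by MTase-Glo luminescence; single-point 40 uM screen[…].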

[2] = target: Guanidinoacetate N-methyltransferase (Homo sapiens) (UniProt Q14353); details: purified enzyme, MTase-Glo SAH luminescence; measured here: GAMT inhibition; at 40 µM; stronger effect = lower value
Summary of the method: as §1

[3] = target: Histamine N-methyltransferase (Homo sapiens) (UniProt P50135); details: purified enzyme, MTase-Glo SAH luminescence; measured here: HNMT inhibition; at 40 µM; stronger effect = lower value
Summary of the method: as §1

[4] = target: Nicotinamide N-methyltransferase (Homo sapiens) (UniProt P40261); details: purified enzyme, MTase-Glo SAH luminescence; measured here: NNMT inhibition; at 40 µM; stronger effect = lower value
Summary of the method: as §1

[5] = target: Phenylethanolamine N-methyltransferase (Homo sapiens) (UniProt P11086); details: purified enzyme, MTase-Glo SAH luminescence; measured here: PNMT inhibition; at 40 µM; stronger effect = lower value
Summary of the method: as §1
% is set by controls: 0 for no effect and ±100 for the full control effect.

Row | SMILES | activity change, negative = inhibition [1] | activity change, negative = inhibition [2] | activity change, negative = inhibition [3] | activity change, negative = inhibition [4] | activity change, negative = inhibition [5]
1 | CC(C)CCn1c(=O)c2ccccc2n2c(SCC(=O)Nc3ccccc3F)nnc12 | -8.54% | 0.091% | 6.92% | -15.4% | 2.41%
2 | CC(C)CCN1C(=O)c2ccc(-c3ccco3)n2CC1(C)C(=O)NC1CCCC(C)C1C (stereo not drawn) | -3.07% | 0% | 3.62% | -6.45% | -0.937%
3 | Cc1cc(C(F)(F)F)nc(CCNC(=O)C2NCCc3[nH]cnc32)n1 (stereo not drawn) | -0.694% | -0.182% | 0.312% | -0.69% | 0.358%
4 | CCN1CCN(C(=O)c2cc3n(n2)CC(C)(C(=O)NC2CCCCCC2)N(C)C3=O)CC1 (stereo not drawn) | -0.111% | -3.99% | 1.41% | -7.93% | -3.82%
5 | O=C1CC(C(=O)Nc2cccc(Cl)c2)n2ncnc2N1 (stereo not drawn) | -3.7% | -2.42% | -2% | -3.21% | -7.31%
6 | CC(C)Cn1c(=O)c2ccc(C(=O)NC(C)C)cc2n2c(=O)n(Cc3ccccc3)nc12 | 1.91% | 8.52% | 1.31% | 1.45% | 0.201%
7 | COc1ccc(CNC(=O)CSc2nnc3n(CCC(C)C)c(=O)c4ccccc4n23)cc1 | 0.072% | 1.46% | -0.264% | -6.99% | -1.35%
8 | O=C(COc1ccccc1)N1CCc2nn(Cc3ccccc3)c(=O)n2CC1 | -2.22% | -2.39% | -0.364% | -4.21% | 0.944%
9 | CC1(C(=O)NC2CCCCC2)Cn2c(cc3sccc32)C(=O)N1C1CCCCC1 (stereo not drawn) | -0.093% | 0% | 1.99% | -5.93% | 0.286%
10 | CN1C(=O)c2cc(C(=O)NCCN3CCCC3)nn2CC1(C)C(=O)NC1CCCCCC1 (stereo not drawn) | 3.95% | 0.037% | 2.41% | 2.11% | 0.2%
11 | CC[C@H](C)/C=C(C)/C=C/C(=O)Cc1cc(O)c(C)c(O)c1C=O | -1.91% | 2.17% | 4.38% | -10.3% | 1.19%
12 | CCC1c2ccc(C)n2CCN1C(=O)Nc1ccccc1Cl (stereo not drawn) | -9.69% | 1.83% | -6.09% | -6.84% | -7.47%
13 | O=C(NC[C@H]1OC[C@@H](NC2CCCCC2)[C@@H]1O)N1CCOCC1 | -2.76% | -9.88% | -1.92% | -8.4% | -4.14%
14 | CCc1cc2c(cc3n2CC(C)(C(=O)NC2CCCCCC2)N(C2CCCC2)C3=O)s1 (stereo not drawn) | 2.33% | 0% | 7.14% | -1.44% | 0.067%
15 | CC(C)CCNC(=O)C1(C)Cn2c(cc3ccccc32)C(=O)N1Cc1ccc(OC(C)C)cc1 (stereo not drawn) | 2.75% | 1.61% | 3.53% | -2.99% | -2.94%
16 | CCOC(=O)c1cc2n(n1)CC(C)(C(=O)NC1CCCCCC1)N(Cc1ccccc1C)C2=O (stereo not drawn) | 5.92% | 2.28% | 7.42% | 3.54% | 5.21%
17 | O=[N+]([O-])c1cc(S(=O)(=O)Nc2ccc(O)c3ccccc23)ccc1Cl |  | -33.1% |  | -22.2% | -88.1%
18 | CCCn1c(=O)c2ccc(C(=O)NCC(C)C)cc2n2c(=O)n(Cc3cccc(F)c3)nc12 | 4.25% | 1.59% | 11.6% | 0.658% | 7.41%
19 | CC(=O)Nc1c2n(c3ccc(F)cc13)CC(C)(C(=O)NCCC(C)C)N(Cc1ccc(F)cc1)C2=O (stereo not drawn) | -13.4% | 0.119% | 0.421% | -6.91% | -0.726%
20 | CCCCNC(=O)c1cc2n(n1)CC(C)(C(=O)NC1CCCCC1)N(C)C2=O (stereo not drawn) | 6.19% | 0% | 3.76% | 9.68% | 3.19%
